Results reported in ChEMBL document CHEMBL4888484, “Replenishing the malaria drug discovery pipeline: Screening and hit evaluation of the MMV Hit Generation Library 1 (HGL1) against asexual blood stage Plasmodium falciparum ,using a nano luciferase reporter read-out” (2022).
The campaign covered roughly 150,000 compounds. About 540 (0.36%) showed an effect of 50% or more. The list shows a part of the results.

These compounds were tested on Plasmodium falciparum (assay: Primary screen in NF54 nanoGlo assay, in single point, at 2uM, 72h; a lower Z score goes with more inhibition). Details: timepoint 72 hour.
Type: functional, Erythrocyte

**Q.** `CCc1nc(C)c(-c2c(C)c(-c3cnn(C)c3)nc(N)c2C#N)[nH]1` was tested. Which “% Inhibition” value did it give?
**A.** 3%

**Q.** What about the Z score of the same compound?
**A.** -0.66

**Q.** Which results are given for `Cc1cnc(NC(=O)CCC(C)C)s1`?
**A.** % Inhibition: -14%; Z score: 1.26

**Q.** Which results are given for `CO[C@H]1C[C@@H](O)C12CCN(C(=O)c1cccc(Oc3ccccc3)c1)CC2`?
**A.** % Inhibition: -12%; Z score: 2.28

**Q.** With `CN(CC1CC1)C(=O)CN(CC(=O)N(C)CC1CC1)Cc1cccnc1` as the compound, how does the “% Inhibition” value read?
**A.** -4%

**Q.** And the Z score?
**A.** 0.69

**Q.** Which “% Inhibition” value does the source give for `Cc1ccc(N2CCCN(Cc3cccc(OC(F)(F)F)c3)C2=O)c(NC(=O)Cc2ccccc2)c1` here?
**A.** 16%

**Q.** And the Z score?
**A.** -3.06

**Q.** Which “% Inhibition” value does the source give for `CC(C)(C)OC(=O)CCC(=O)N1CCCOc2ccccc21` here?
**A.** -4%

**Q.** What about the Z score of the same compound?
**A.** 0.51

**Q.** `O=C(NC[C@H](O)c1csc2ccccc12)c1ccsc1` was tested. Which “% Inhibition” value did it give?
**A.** 10%

**Q.** And the Z score?
**A.** -1.29

**Q.** How did the “% Inhibition” value turn out when `Cc1ncsc1NC(=O)Cc1csc(Cc2cccc(Cl)c2)n1` was run?
**A.** -1%

**Q.** And the Z score?
**A.** 0.13

**Q.** How did the “% Inhibition” value turn out when `CCCC[C@H](NC(=O)OCc1ccccc1)C(=O)O` was run?
**A.** -19%

**Q.** And the Z score?
**A.** 2.39

**Q.** What does the source list for `O=C(c1cscn1)N1CCCc2c(F)cc(Br)cc21`?
**A.** % Inhibition: 1%; Z score: -0.12

**Q.** What does the source list for `Cc1ccccc1NC(=O)Cc1nnc(N)s1`?
**A.** % Inhibition: 40%; Z score: -4.57

**Q.** What does the source list for `CCCCC1C2C(=O)N(c3ccccc3C)C(=O)C2ON1c1ccccc1` (stereo not drawn)?
**A.** % Inhibition: -7%; Z score: 0.76

**Q.** `CC[C@@](C)(C(=O)Nc1ccc(N2CCOCC2)cc1)N(Cc1cccnc1)C(=O)Cn1nnc2ccccc21` was tested. Which “% Inhibition” value did it give?
**A.** -32%

**Q.** What about the Z score of the same compound?
**A.** 3.74

**Q.** Which results are given for `CN(CC(=O)NC[C@H]1CCCO1)Cc1ccc(Br)o1`?
**A.** % Inhibition: -4%; Z score: 0.57

**Q.** Which results are given for `CCC[C@H]1c2nc[nH]c2CCN1Cc1ccnn1-c1ccccc1`?
**A.** % Inhibition: -4%; Z score: 0.81

**Q.** `CCOc1ccc(Cl)cc1CN(C)CCCS(=O)(=O)N(C)C` was tested. Which “% Inhibition” value did it give?
**A.** -8%

**Q.** What about the Z score of the same compound?
**A.** 0.88

**Q.** What does the source list for `CC(NC(=O)N1CCCC(O)CC1)c1ccc(F)c2ccccc12` (stereo not drawn)?
**A.** % Inhibition: -10%; Z score: 1.09

**Q.** What does the source list for `COCCOc1cc(C)c2c(c1C)C[C@H]([C@H](C)C(=O)NC1CCCC1)CC2`?
**A.** % Inhibition: -2%; Z score: 0.24

**Q.** `CCCN(CCC)S(=O)(=O)c1c(C)nn(Cc2ccon2)c1C` was tested. Which “% Inhibition” value did it give?
**A.** 3%

**Q.** And the Z score?
**A.** -0.29

**Q.** For `CCn1cc(C2OCCC2CNCc2ccccn2)cn1` (stereo not drawn), which “% Inhibition” value is on record?
**A.** -9%

**Q.** And the Z score?
**A.** 1.21

**Q.** What does the source list for `Cn1cc(CCC(=O)N(C2CCCCC2)[C@H]2CCS(=O)(=O)C2)cn1`?
**A.** % Inhibition: 11%; Z score: -1.41

**Q.** `O=C(Cn1nc(C(F)F)c2c1CCC2)NC1CCCCCC1` was tested. Which “% Inhibition” value did it give?
**A.** 6%

**Q.** What about the Z score of the same compound?
**A.** -0.97

**Q.** What does the source list for `C=CCN(C(=O)c1cc(-c2ccccc2)on1)[C@H]1CCS(=O)(=O)C1`?
**A.** % Inhibition: -1%; Z score: 0.06

**Q.** Which “% Inhibition” value does the source give for `CC(C)C[C@@H](C(=O)N[C@@H](Cc1ccccc1)C(=O)O)n1c(=O)[nH]c2ccccc2c1=O` here?
**A.** 3%

**Q.** And the Z score?
**A.** -0.44
